{
  "source": "PubChem BioAssay AID504706",
  "about": "(National Center for Advancing Translational Sciences (NCATS), 2011)",
  "note": "About 200 (0.062%) of roughly 320,000 compounds were called active. Inconclusive means that the source gave no clear call. Such entries were picked first, then a sample of the others. Calls come from the whole dose curve; as a rule, active = well fitted activation curve with a large enough effect; inconclusive = small, poorly fitted or top-dose-only effect; inactive = no such curve, though single readings can be large or run the other way. No potency is given beside an inconclusive call; the fits are too rough. Potency is the fitted concentration of half-maximal effect; tags give direction and shape of the fitted curve.",
  "data": [
    {"assay": "qHTS assay for re-activators of p53 using a Luc reporter; note: nearly all actives have a fitted effect of over 45% in size; for activity change, positive = activation: % of control where 0% means no effect", "conditions": "H1299 p53-A138V BP100-luciferase reporter, luminescence, 24 h; series mostly up to 92.2 µM; activity change, positive = activation: at the top concentration", "method_in_brief": "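H1299 (p53-null), stable ts p53-A138V + BP100-Luc; 1000 cells/well, Opti-MEM/10% FBS; cpd 4 pt, 1:5; 24 h, 37 deg C, 5% CO2; detection reagent 10 min RT; luminescence.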", "values": [
      {"smiles": "CCOC(=O)C(O)(c1ccc(NC(=S)NC(=O)c2ccc(Cl)cc2Cl)c(C)c1)C(F)(F)F", "note": "(stereo not given)", "Potency": "inconclusive [activator, single point]"},
      {"smiles": "CCOC(=O)c1c(/N=C/c2c(O)n(-c3cccc(C)c3)c(=O)[nH]c2=O)sc2c1CCCC2", "activity change, positive = activation": "inactive: -3%"},
      {"smiles": "CCN(CC)C(=O)c1ccc(NC(=O)c2cc(-n3cnnc3)ccc2Cl)cc1", "Potency": "inconclusive [activator, single point]"},
      {"smiles": "COc1cc(C(=O)Nc2ccc(Br)cc2C(=O)c2ccccc2Cl)cc(OC)c1OC", "activity change, positive = activation": "inactive: 2.54%"},
      {"smiles": "Cc1ccc(NS(=O)(=O)c2ccc(OCC(=O)N3CCN(C)CC3)cc2)cc1", "activity change, positive = activation": "inactive: -6.77%"},
      {"smiles": "CN1C(=O)C(=Cc2ccc(N3CCOCC3)o2)C(=O)N(C)C1=O", "Potency": "inconclusive [activator, partial curve, poor fit]"},
      {"smiles": "O=C(c1cc2c(s1)CCCC2)N1CCC2(CC1)OCCO2", "Potency": "inconclusive [activator, partial curve, poor fit]"},
      {"smiles": "COc1ccc(NC(=O)CCCn2c(=O)oc3ccccc32)cc1Cl", "Potency": "inconclusive [activator, full curve, poor fit]"},
      {"smiles": "O=[N+]([O-])c1ccc(CN2CCN(c3ccc(Cl)cc3)CC2)o1", "Potency": "inconclusive [activator, partial curve, poor fit]"},
      {"smiles": "CCOc1ccc(C2CC(c3c(O)n(C)c(=O)n(C)c3=O)=NN2)cc1", "note": "(stereo not given)", "activity change, positive = activation": "inactive: 3.9%"},
      {"smiles": "O=C(O)C1C2CCC(O2)C1C(=O)Nc1ccc(F)c(F)c1", "note": "(stereo not given)", "Potency": "inconclusive [activator, single point]"},
      {"smiles": "COc1ccc(-n2nc(C(=O)NCC(=O)N3CCC4(CC3)OCCO4)c3ccccc3c2=O)cc1", "Potency": "inconclusive [activator, full curve, poor fit]"},
      {"smiles": "Brc1ccccc1OCCCN1CCOCC1", "Potency": "inconclusive [activator, partial curve, poor fit]"},
      {"smiles": "Cc1ccc(N2C(=O)NC(=O)C3(Cc4ccccc4N4CCN(c5ccccc5)CC43)C2=O)cc1", "note": "(stereo not given)", "Potency": "inconclusive [activator, full curve, poor fit]"},
      {"smiles": "CCCCCCOc1ccc(CN2CCN(C)CC2)cc1", "Potency": "inconclusive [activator, full curve, poor fit]"},
      {"smiles": "CCN1CCN(C(=O)Cc2ccc(C)cc2)CC1", "Potency": "inconclusive [activator, partial curve, poor fit]"},
      {"smiles": "CN1CCc2c(C#N)c(Cl)nc(Cl)c2C1", "Potency": "inconclusive [activator, partial curve, poor fit]"},
      {"smiles": "O=c1c(O)c(-c2ccc(O)c(O)c2)oc2cc(O)cc(O)c12", "Potency": "inconclusive [activator, partial curve, poor fit]"},
      {"smiles": "O=C(N/N=C/c1c(O)n(-c2ccccc2)c(=O)[nH]c1=O)c1ccncc1", "activity change, positive = activation": "inactive: 21.7%"},
      {"smiles": "Cc1ccc(-n2c(O)c(C=Nc3ccccc3N)c(=O)[nH]c2=O)cc1C", "Potency": "inconclusive [activator, partial curve]"},
      {"smiles": "Cn1c(O)c(N=Nc2ccc(S(=O)(=O)N3CCOCC3)cc2)c(=O)n(C)c1=O", "Potency": "inconclusive [activator, partial curve, poor fit]"},
      {"smiles": "O=C1NC(=O)N(CC2CCCO2)C(=O)/C1=C/c1cccs1", "note": "(stereo not given)", "activity change, positive = activation": "inactive: 0.897%"},
      {"smiles": "Cc1c(OC(=O)N(C)C)ccc2c1O/C(=C\\c1ccco1)C2=O", "Potency": "inconclusive [activator, partial curve, poor fit]"},
      {"smiles": "CCc1nc(N2CCNCC2)c(C#N)c2c1CSC(C)(C)C2", "Potency": "inconclusive [activator, partial curve, poor fit]"},
      {"smiles": "CC(=O)c1ccc(-c2ccccc2)cc1", "Potency": "inconclusive [activator, full curve]"},
      {"smiles": "COC(=O)C1=C(c2cccc(OCc3ccccc3)c2)C[C@@H]2CC[C@H]1N2C(=O)NC1CCN(Cc2ccccc2)CC1", "Potency": "inconclusive [activator, single point]"},
      {"smiles": "Cc1ccc(Cn2cc(C=O)c(-c3ccc(C)cc3)n2)cc1", "Potency": "inconclusive [activator, partial curve, poor fit]"},
      {"smiles": "CC(=O)C1(c2ccccc2)CCNCC1", "Potency": "inconclusive [activator, single point]"},
      {"smiles": "C=C(CO)CC1CC(O)[C@]2(C)OC3CC4OC5C[C@]6(C)O[C@]7(C)CCC8OC9C[C@]%10(C)OC%11C(C)=CC(=O)OC%11CC%10OC9C[C@@H](C)C8OC7CC6O[C@]5(C)C/C=C\\C4OC3CC2O1", "note": "(stereo not given in full)", "activity change, positive = activation": "inactive: 4.13%"},
      {"smiles": "CCC(COC(=O)NC)NC(=O)Oc1ccccc1", "note": "(stereo not given)", "Potency": "inconclusive [activator, partial curve, poor fit]"},
      {"smiles": "COc1cc(/C=C/C(=O)c2c(O)n(CCc3ccccc3)c(=O)[nH]c2=O)ccc1O", "Potency": "inconclusive [activator, single point]"},
      {"smiles": "COC(=O)c1ccc(C(=O)OC)c(NC(=O)Oc2ccccc2)c1", "Potency": "inconclusive [activator, partial curve, poor fit]"},
      {"smiles": "CCN(CC)C(=O)c1ccc(N2C(=O)C3CC=C(Cl)CC3C2=O)cc1", "note": "(stereo not given)", "activity change, positive = activation": "inactive: 3.56%"},
      {"smiles": "Nc1c(C(=O)OCC2CCCO2)c2nc3ccccc3nc2n1Cc1cccs1", "note": "(stereo not given)", "activity change, positive = activation": "inactive: 7.76%"},
      {"smiles": "CNC(=O)Oc1cccc(-c2cn3cc(OC(=O)NC)ccc3n2)c1", "Potency": "inconclusive [activator, partial curve, poor fit]"},
      {"smiles": "CCCCCCOc1ccc(CN2CCN(CC)CC2)cc1", "Potency": "inconclusive [activator, full curve, poor fit]"},
      {"smiles": "COc1ccc2[nH]c3c(c2c1)CCNC3C", "note": "(stereo not given)", "Potency": "inconclusive [activator, single point]"},
      {"smiles": "O=C(c1ccc(N2CCN(CCO)CC2)nc1)N1CCOCC1", "Potency": "inconclusive [activator, single point]"},
      {"smiles": "COc1ccc(CN2CCCC(C(=O)c3ccc(Cl)cc3)C2)c(OC)c1", "note": "(stereo not given)", "Potency": "inconclusive [activator, single point]"},
      {"smiles": "Cc1ccc(OCCOc2cccc(C=C3C(=O)NC(=O)NC3=O)c2)cc1", "activity change, positive = activation": "inactive: -1.37%"}
    ]}
  ]
}
